Here are results for 40 sequences from the supplement of paper PMC10441789.

Some of the results follow. Antibody binding of pooled human sera (four to six donors per pool; dilution not stated) to peptides of the Trypanosoma cruzi antigen TSSA on microarrays. Quantile-normalised fluorescence in arbitrary units, mean of duplicate arrays; higher = more binding. No active / inactive call. The uninfected pools are read here as the healthy donors of the same country. The strongest signals lie near the top of the scale (about 60,000).

For the experiment, the system named is pooled sera of uninfected people, Brazil. The experiment can be described thus: antibody binding signal (normalised fluorescence) (arbitrary fluorescence units); higher = stronger serum antibody binding to peptide. The protocol: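 Microarray of overlapping 15-residue peptides of the four Trypanosoma cruzi TSSA reference variants and 8- to 13-residue peptides of TSSAII 24-62, probed with one serum pool per country.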
Sequence PGASSGEAEA returned an antibody binding signal of 166.
The value for PPSGTENKPATGE was 486.
The result for TGEAPSQPG reads 348.
For TPPSGTENKP, the antibody binding signal amounted to 463.
The result for ENKPATGEA reads 169; that for NKPATGEAPSQPGAS, 770; that for PSGTENKPATGEAPS, 606.
The result for NKPATGEAPSQPG reads 792.
The result for SQPGASSGEAEASSN reads 119.
Sequence GGSTSSTPPSGT showed an antibody binding signal of 219.
The value for PSQPGASSGEA was 154.
The result for PSQPGASSGEAEASS reads 109.
The value for SSTPPSGTENKPA was 1020.
Turning to GEAPSQPGASSG, the antibody binding signal was 254.
The result for PGASSGEAE reads 119.
The value for GEAPSQPGA was 232.
KPATGEAPS gave an antibody binding signal of 188.
The value for STSSTPPSGTENKPA was 546.
The result for STPPSGTENKPAT reads 629; that for TSSTPPSGTENKPAT, 825.
The value for GGSTSSTPPSGTE was 135.
TENKPATGEA: the antibody binding signal was 183.
GTPSPSGASSGEAEA: the antibody binding signal came out at 125.
The result for GSTSSTPPSGTEN reads 236.
For the sequence TISTPPSGTDKKTAA, the antibody binding signal is 225.
The value for GASSGEAEASS was 125; that for SPSGASSGEAEASSN was 125.
The value for SSTPPSGTENKPATG was 1160; that for PSGTENKPAT was 682.
Regarding GEAPSQPGAS, the antibody binding signal was 218.
The value for GTDKKTAAGEAPSPS was 204; that for PSGTENKPA was 744; that for GTENKPATGEAP was 411.
The value for GEAPSQPGASSGEAE was 97.2; that for TAAGGTPSPSGASSG was 328.
The value for STSSTPPSGTE was 124; that for PATGEAPSQPGAS was 350; that for STSSTPPS was 168.
Regarding KKTAAGEAPSPSGAS, the antibody binding signal stood at 95.2.
The result for APSQPGASSGEA reads 160.
